# According to the RNAGym collection of RNA variant scans (doi:10.1093/nar/gkz1192):
# Read counts are not given, so values of variants with three or more changes are uncertain.
# B1: CPEB3 Ribozyme (parent)
# chain: UAACAGGGGGCCACAGCAGAAGCGUUCACGUCGCAGCCCCUGUCAGAUUCUGGUGAAUCUGCGAAUUCUGCUGUAUAUCUC
# Variants of: B1
# Test: self-cleavage, relative activity (ratio to wild type); higher = more cleavage; in vitro, sequencing
# How it was run: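 CPEB3 self-cleaving ribozyme mutant libraries were made by rounds of error-prone PCR, barcoded, and transcribed in vitro with T7 RNA polymerase for 5 hours at 37°C. Cleavage occurred during transcription and a 15 min DNase I step before EDTA stop. RNAs were reverse transcribed with template switching and Illumina-sequenced, with DNA sequencing mapping barcodes to variants. Relative activity is the variant's cleaved/total read fraction divided by wild type's (minimum 5 reads), averaged across three batches.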
row,Variant,self-cleavage
1,C38A U51G A64U U67C,0.05
2,C38G U43C U74C,0.17
3,C38G U43G U69C,0.17
4,C38G U54C A56U,0.09
5,C38G U58A U69C U72C U80C,0.06
6,C38U A45C U60C,0.37
7,C38U A45G U48C,0.09
8,C38U A47C A56G,0.38
9,C38U A56G A57U U78A C81A,0.13
10,C38U G63U U72G,1.32
11,C38U U43C A45U U74A U80C,0.14
12,C38U U48C U76C,0.4
13,C38U U58C C79A,0.72
14,C39A A64U U66C,0.16
15,C39A G55A U72A U76C U78C,0.07
16,C39A G63C U66C C79A,0.14
17,C39A U43C U60A U67A,0.09
18,C39A U48A U60C,0.18
19,C39A U51A A56G U66C,0.32
20,C39G A47G A65U,0.2
21,C39G U43C U58C A65G,0.28
22,C39G U58A A75G U80C,0.08
23,C39U A45G U48A,0.21
24,C39U A47G U69C A75U U80C,0.08

row,Variant,self-cleavage
1,C39U A47U U60G,0.37
2,C39U A64G U78C,0.25
3,C39U G63A U78C,0.26
4,C39U U41A U60C,0.13
5,C39U U41C U49C,0.75
6,C39U U49C U60A,0.17
7,C39U U49C U80C,0.5
8,C39U U51A U72C,1.05
9,C39U U54A U69C,0.3
10,C39U U69C U74C,0.41
11,C39U U69C U78C,0.53
12,C40A A45U A64G,0.2
13,C40A A45U U80A,0.27
14,C40A A57G U69G,0.13
15,C40A A65G U72G,0.1
16,C40A C44A U72A,0.15
17,C40A G46A G73A,0.38
18,C40A G61A A64G,0.14
19,C40A G63U A75G,0.2
20,C40A U41A U60A U72A,0.15
21,C40A U41C A56U U69A U72C,0.08
22,C40A U43A U49C A56G,0.18
23,C40A U48C A64G U76A,0.2
24,C40A U51C A64U,0.07

row,Variant,self-cleavage
1,C40A U54A A56G,0.22
2,C40A U54C U60A,0.14
3,C40A U60A U69G,0.08
4,C40A U67C U76G,0.16
5,C40G U41C U43C A57G U60C,0.13
6,C40G U41C U72C,0.61
7,C40U A45G A47G A64U,0.09
8,C40U A45U U48C U67C,0.09
9,C40U A47G U48C U49A U67A U78C,0.1
10,C40U A56G A57G G70U,0.15
11,C40U A56U U60C U67C U80C,0.16
12,C40U A57G U66A,0.16
13,C40U A57G U67C U69G,0.14
14,C40U A57G U69G,0.53
15,C40U A65G U72C U74G,0.24
16,C40U A75U A77G,0.65
17,C40U C44G U69A U72A,0.08
18,C40U C44U A65G U69C A77U,0.07
19,C40U C44U U66C C81U,0.12
20,C40U G42A U58C,0.16
21,C40U G42A U80A,0.35
22,C40U G55A A65G,0.41
23,C40U U43A U72A,0.24
24,C40U U43C U51A U67C,0.08

row,Variant,self-cleavage
1,C40U U49A A56G A64U U72C,0.1
2,C40U U49C A56G A65G,0.2
3,C40U U49C A77G,0.3
4,C40U U49C U80A,0.4
5,C40U U51C A57G A64G,0.38
6,C40U U60A A64G,0.15
7,C40U U72A U74C U80C,1.15
8,U41A A45G U54C U69G U78A,0.05
9,U41A A45G U76C,0.23
10,U41A A47C U51G U72A,0.29
11,U41A A47G U60C U80A,0.11
12,U41A A47U U49A U72A,0.15
13,U41A A56G C62U A77U,0.16
14,U41A A56U U66C,0.12
15,U41A A57G U58C,0.14
16,U41A A57G U72A U74A,0.25
17,U41A A57G U72A U80C,0.04
18,U41A A57U C68A A75U,0.06
19,U41A A64G U72A,0.23
20,U41A A64U U69C U78C,0.2
21,U41A A65G U74C,0.16
22,U41A G42U G63U,0.27
23,U41A G46A A75G,0.16
24,U41A U43C A56U U72C,0.17

row,Variant,self-cleavage
1,U41A U43C U49A,0.15
2,U41A U43C U60G A77G,0.1
3,U41A U43C U76A,0.2
4,U41A U43G A57G,0.28
5,U41A U48C A65G,0.14
6,U41A U48C A77U,0.34
7,U41A U48C G61U,0.14
8,U41A U48C U58A U60A,0.08
9,U41A U48C U66A U72A,0.07
10,U41A U48C U72C,0.21
11,U41A U49A A56G U74A,0.09
12,U41A U49C A56G U67C G70A U80C,0.09
13,U41A U49C G52U U69C U80C,0.07
14,U41A U49C U54C U60A U72C,0.13
15,U41A U49C U58C U72C,0.16
16,U41A U49C U72A,0.38
17,U41A U49G A57G,0.36
18,U41A U51A A56G,0.1
19,U41A U51A C62G,0.43
20,U41A U51C U69C U80A,0.18
21,U41A U51G A64U,0.12
22,U41A U54C A57G C59A,0.15
23,U41A U54C A77U,0.22
24,U41A U54C U67G,0.08

row,Variant,self-cleavage
1,U41A U58C U60C A64G,0.09
2,U41A U60A U67C G73A,0.43
3,U41A U60C A64U,0.2
4,U41A U60G A77U,0.14
5,U41A U66C U72C,0.24
6,U41A U66C U74A,0.05
7,U41A U67A A75G,0.04
8,U41A U67A U72A A75G,0.15
9,U41A U69A A77G,0.14
10,U41A U69A U76C,0.21
11,U41A U76A U78A,0.54
12,U41C A45C U49C U72A,0.09
13,U41C A45G A56U,0.39
14,U41C A45G G46A A47G U60A,0.1
15,U41C A45G U49C U74C,0.35
16,U41C A45U A47G U54G U69C A75G,0.05
17,U41C A45U A64G U72C,0.32
18,U41C A45U A65G,0.28
19,U41C A45U G52A U67A,0.42
20,U41C A47G A56G U72A,0.77
21,U41C A47G U54C U72A,0.64
22,U41C A47U U51A A56G,0.41
23,U41C A56C U58C,0.19
24,U41C A56G A57G A64G,0.31

row,Variant,self-cleavage
1,U41C A56U C62G,0.2
2,U41C A57G U58C,0.47
3,U41C A57G U60A U67A,0.39
4,U41C A57G U60C,0.51
5,U41C A64U C71G U78G,0.16
6,U41C A65G U72C A77G,0.68
7,U41C A65G U72C U80C,0.54
8,U41C C50A U67C,0.24
9,U41C C59U U69A,0.52
10,U41C C62G A77U,0.17
11,U41C C62G U72C U78C,0.13
12,U41C C62G U72G,0.13
13,U41C C62U C71A,0.17
14,U41C G42A U48C,0.24
15,U41C G42U A75U U80C,0.2
16,U41C G46A U48G U49C U54A,0.1
17,U41C G52A U54C U60C U80C,0.68
18,U41C G63C U78A C81U,1.04
19,U41C G63U A64G,1.05
20,U41C G63U A64G U69C,0.26
21,U41C U43A A45G,0.31
22,U41C U43A A47G G61A,0.22
23,U41C U43A C44U C62A,0.29
